# Results reported in PubChem BioAssay AID504332 (National Center for Advancing Translational Sciences (NCATS), 2011).
# The campaign covered roughly 350,000 compounds. About 31,000 (8.9%) were called active. Inconclusive means that the source gave no clear call. Such entries were picked first, then a sample of the others. The call rests on the fitted dose curve; in most records, active means well fitted inhibition curve with a large enough effect; inconclusive means small, poorly fitted or top-dose-only effect; inactive means no such curve, though single readings can be large or run the other way. Potencies of inconclusive entries are doubtful fits and often do not repeat.
# Target: Histone-lysine N-methyltransferase EHMT2 (Homo sapiens) (UniProt Q96KQ7)
# UniProt Q96KQ7, sequence (Q96KQ7 whole entry, looked up): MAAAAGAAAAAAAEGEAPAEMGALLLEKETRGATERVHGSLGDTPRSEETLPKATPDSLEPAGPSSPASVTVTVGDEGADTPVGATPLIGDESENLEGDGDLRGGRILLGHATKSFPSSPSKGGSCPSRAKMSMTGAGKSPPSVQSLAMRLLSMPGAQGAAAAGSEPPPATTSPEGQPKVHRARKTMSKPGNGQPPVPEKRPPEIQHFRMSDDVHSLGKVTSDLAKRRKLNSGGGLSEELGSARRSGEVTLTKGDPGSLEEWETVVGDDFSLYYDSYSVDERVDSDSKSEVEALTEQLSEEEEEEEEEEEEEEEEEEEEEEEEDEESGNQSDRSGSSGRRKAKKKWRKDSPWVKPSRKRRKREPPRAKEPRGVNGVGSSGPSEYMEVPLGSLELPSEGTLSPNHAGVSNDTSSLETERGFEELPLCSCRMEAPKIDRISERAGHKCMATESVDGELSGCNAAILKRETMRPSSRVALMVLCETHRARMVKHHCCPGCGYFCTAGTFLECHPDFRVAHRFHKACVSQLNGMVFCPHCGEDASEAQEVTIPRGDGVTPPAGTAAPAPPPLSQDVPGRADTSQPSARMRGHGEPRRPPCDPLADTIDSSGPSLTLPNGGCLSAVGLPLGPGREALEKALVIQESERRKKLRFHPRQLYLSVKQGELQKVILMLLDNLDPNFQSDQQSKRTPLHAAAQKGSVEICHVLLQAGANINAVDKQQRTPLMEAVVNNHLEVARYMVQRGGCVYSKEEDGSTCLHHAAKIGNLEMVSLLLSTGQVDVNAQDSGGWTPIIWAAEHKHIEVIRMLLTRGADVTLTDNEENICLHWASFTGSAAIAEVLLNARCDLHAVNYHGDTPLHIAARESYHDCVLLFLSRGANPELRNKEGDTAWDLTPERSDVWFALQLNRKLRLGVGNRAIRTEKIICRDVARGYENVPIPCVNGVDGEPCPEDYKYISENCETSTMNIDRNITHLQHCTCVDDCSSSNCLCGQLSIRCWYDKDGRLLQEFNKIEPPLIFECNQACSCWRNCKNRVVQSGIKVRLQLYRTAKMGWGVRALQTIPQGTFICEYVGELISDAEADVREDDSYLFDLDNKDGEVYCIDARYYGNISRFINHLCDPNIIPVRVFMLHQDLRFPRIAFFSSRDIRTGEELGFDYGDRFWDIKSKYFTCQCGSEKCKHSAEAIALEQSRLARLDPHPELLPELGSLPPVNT
# Assay: qHTS Assay for Inhibitors of Histone Lysine Methyltransferase G9a; further: nearly all actives have a fitted effect of over 75% in size
# Conditions: G9a H3K9 monomethylation, AlphaScreen, 2 h; activity, negative = inhibition: at 59 µM (top of the series) unless noted
# Summary of the method: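 G9a (20 nM) preincubated 15 min RT with compounds, then 500 nM biotinylated H3K9 peptide and 20 uM SAM added; 2 h RT reaction. Monomethyl-H3K9 product detected by AlphaScreen with anti-H3K9me1 antibody, streptavidin donor and anti-rabbit IgG acceptor beads.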
# On the % scale 0 is the no-effect control and ±100 the full control effect; potency means the concentration at half of the fitted maximal effect; tags describe the fitted curve by direction and shape.
Compound,Potency,"activity, negative = inhibition"
Cc1nnc(SCC(=O)NCc2ccco2)[nH]c1=O,active: 50.1 µM,
Cc1cccc(N2CCN(c3ccc4cc(S(=O)(=O)N5CCC(C)CC5)ccc4n3)CC2)c1C,"inconclusive: 7.08 µM [inhibitor, full curve, poor fit]",
O=C(CNc1cccc2ccccc12)N/N=C/c1ccc(C(=O)O)cc1,"inconclusive: 89.1 µM [inhibitor, single point]",
O=C(CCn1c(=O)c2sccc2n(CC(=O)OCc2ccccc2)c1=O)NCc1ccco1,"inconclusive: 89.1 µM [inhibitor, single point]",
O=C(Nc1nc(-c2ccccn2)cs1)C1CC1,,inactive: 8.84% [at 102 µM]
CCOC(=O)c1c(NC(=O)Cc2coc3ccc(CC)cc23)sc2c1CCC2,"inconclusive: 22.4 µM [inhibitor, partial curve, poor fit]",
O=C(c1cccc(F)c1)N1CCN(Cc2ccco2)CC1,active: 31.6 µM,
Clc1ccc(C2=CSC3=Nc4cccc5cccc(c45)N23)cc1,active: 3.55 µM,
O=S(=O)(c1ccc(SCCOc2ccc(F)cc2)nc1)N1CCCC1,"inconclusive: 7.94 µM [inhibitor, single point]",
COc1ccccc1-c1cc(C(=O)Nc2cc(C)n(Cc3ccc(Cl)cc3)n2)no1,,inactive: 16.4% [at 12.7 µM]
COC(=O)c1cc(Br)ccc1NC(=O)Nc1ccccc1,,inactive: -9.06%
Cc1ccccc1N1CCN(C2=NC(=O)/C(=C\c3cccs3)S2)CC1,active: 50.1 µM,
Cc1sc2ncnc(N(C)CCc3ccccn3)c2c1C,,inactive: -140%
COCCOC(=O)c1c(C)oc2ccc(NS(=O)(=O)c3ccc(C(=O)O)cc3)cc12,"inconclusive: 89.1 µM [inhibitor, single point]",
CCc1ccc(NC(=O)CC(NCc2cccnc2)C(=O)O)cc1 (stereo not given),"inconclusive: 6.31 µM [inhibitor, partial curve, poor fit]",
N#CCCn1c(=O)c(CCc2ccccc2)nc2cnc(N3CCOCC3)nc21,,inactive: -6.55% [at 12.7 µM]
Cc1ccc2nc(Cl)c(/C=N/Nc3nc(C)cc(C)n3)c(=O)n2c1,"inconclusive: 3.16 µM [inhibitor, single point]",
CN(C)C=Nc1ncc2c3ccccc3n(CCN(C)C)c2c1C#N,"inconclusive: 50.1 µM [inhibitor, partial curve, poor fit]",
Cc1cccnc1NC(=O)Nc1cccc2ccccc12,active: 7.08 µM,
O=C(c1ccc(OC2CCN(Cc3ccccc3O)CC2)cc1)N1CCCCC1,"inconclusive: 89.1 µM [inhibitor, single point]",
